Measurements from patent US20230135723A1, “ANTI-CD98 ANTIBODIES AND ANTIBODY DRUG CONJUGATES” (AbbVie Inc., priority 2016, published 2023).

B1: ChAb4-CZ (conjugate)
VH: EVKLVESGGGLVQPGGSLRLSCTTSGFTFTDYYMSWVRQPPGKALEWLGFIRNKATIYTTEYSASVKGRFTISRDNSQSILYLQMNTLRAEDSATYYCARASYGNSEGWFAYWGQGTLVTVSA
VL: DIVMSQSPSSLAVSVGEKVTMS[about 80 residues omitted here]FGGGTKLEIK
B2: CD98 (CL-huAb102)-XW (conjugate)
heavy: EVQLVESGGGLVQPGGSLRLSCATSGFTFIDYYMSWVRQAPGKGLEWLGFIRNKANRYTTEYSASVKGRFTISRDNSKSILYLQMNSLKTEDTAVYYCTRDRPAWFVYWGQGTLVTVSSASTKGPSVFPLAPSSKSTSGGTAALGCLVKDYFPEPVTVSWNSGALTSGVHTFPAVLQSSGLYSLSSVVTVPSSSLGTQTYICNVNHKPSNTKVDKKV[human IgG1 Fc with changes omitted here]
light: DIVMTQTPLSLPVTPGEPASISCKSSQSLLYSSNQKNYLAWYLQKPGQSPQLLIYWASTRESGVPDRFSGSGSGTDFTLKISRVEAEDVGVYYCQQYYSYPYTFGGGTKVEIKRTVAAPSVFIFPPSDEQLKSGTASVVCLLNNFYPREAKVQWKVDNALQSGNSQESVTEQDSKDSTYSLSSTLTLSKADYEKHKVYACEVTHQGLSSPVTKSFNRGEC

Tests used:
[1] = test system: EBC-1 (human lung squamous cell carcinoma) xenograft; test: EBC-1 xenograft tumor growth inhibition; type: in vivo; conditions: 10 mg/kg/day IP QDx1, SCID-bg mice
[2] = test system: NCI-H146 (human small cell lung cancer) xenograft; test: NCI-H146 xenograft tumor growth inhibition; type: in vivo, mice; conditions: 10 mg/kg/day QDx1 IP, N 8
Description: The in vivo anti-tumor efficacy of selected humanized anti-CD98 mAb conjugates were tested in NCI-H146 (human small cell lung cancer) xenograft model, as described in Example 6. Tumor growth inhibition was reported as TGImax in Table 28.

Molecule	Growth Inhibition TGD (%) [1]	Growth Inhibition TGImax (%) [1]	Response Frequency CR (%) [1]	Response Frequency OR (%) [1]	Response Frequency PR (%) [1]	TGImax (%) [2]
B1	37* %	63* %	0%	0%	0%	
B2						55%

Marks after values point to notes of the source that are not given here.
